Consider 24 sequences from the supplement of paper PMC11417369.

Some of the results follow.

In the assay the test system is PfHDP1 homeodomain (GST-tagged). Nature of the assay: gcPBM binding intensity (ln(normalized median fluorescence intensity)); higher = stronger DNA binding. In a few lines: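 Binding intensity is the highest Masliner-normalised natural-log median intensity over replicate spots in either probe orientation. To obtain it, GST-tagged P. falciparum DNA-binding domains made in E. coli were incubated for 1 h on an Agilent 4 × 180k array of primer-extended double-stranded 36-bp intergenic genomic probes plus negative controls. Detection used Alexa488 anti-GST antibody with scanning at 488 nm.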
Regarding “TAGAAATATATAAATTGTACATGTTTGTATAATATA [XGTACX_site2097]”, the “gcPBM binding intensity (ln)” value came to 6.44.

Regarding “CCTCTTAATATGTGCACACTAAATTATAACATAATT [CACACA_site3259]”, the “gcPBM binding intensity (ln)” value is 11.3.

Consider “GGTTAACATAAATATATACACACCAATGATGGCATT [CACACA_site1568]”, for which the “gcPBM binding intensity (ln)” value worked out at 6.51.

Regarding “TGAAAAGTAAAATACACACACATAATCTAATTTATA [CACACA_site7024]”, the “gcPBM binding intensity (ln)” value stood at 6.47.

As to “TATATTATTTATTAGACACACATTATTAATATATTT [CACACA_site1078]”, the “gcPBM binding intensity (ln)” value amounted to 6.49.

“TGGATTTTGTATTAATGTACATATATATATATATAT [XGTACX_site4442]”: the “gcPBM binding intensity (ln)” value was determined as 9.33.

As for “CAGATAGACTTATATGCATGCATTCACATACCAACA [TGCATGCA_site163]”, the “gcPBM binding intensity (ln)” value came out at 6.92.

For “AACAACATTTTGTAATGTACATATTTACTTATATTC [XGTACX_site7251]”, the “gcPBM binding intensity (ln)” value came to 6.06.

Take “AAGGATTATTTTAATCGTACATGTGTAAATAATATA [XGTACX_site6177]”: the “gcPBM binding intensity (ln)” value was found to be 6.84.

Take “TTTTTTCATTTTTTATTTTTTTATTTTTTACATATT [GTGCAC_negctrl_site137]”: the “gcPBM binding intensity (ln)” value turned out to be 6.47.

Regarding “TTTTTTAAAATAATAGGTACACATAAAAAAAAAAAA [XGTACX_site2517]”, the “gcPBM binding intensity (ln)” value was found to be 6.64.

On to “AATGATGTTGTATTGTTTCGATATAACATCTAATTT [GTGCAC_negctrl_site309]”, for which the “gcPBM binding intensity (ln)” value was found to be 5.97.

Take “TATATATATAGACACACACACATATAAATAAATAAA [CACACA_site444]”: the “gcPBM binding intensity (ln)” value was determined as 7.26.

As for “TTATTTATTTTCATATGTACTTATTTATAGAGGTTG [XGTACX_site5599]”, the “gcPBM binding intensity (ln)” value was found to be 6.79.

As for “CATACATACATACATACACACATATATATATATATG [CACACA_site1995]”, the “gcPBM binding intensity (ln)” value was 7.63.

For “TTTTTCCCCCTTTTTTTGATTTTTATCTTAATTCTA [TGCATGCA_negctrl_site287]”, the “gcPBM binding intensity (ln)” value was 5.85.

On to ATATAATAACAAAAGGTGCGCATTAAGACAAAAAAA, for which the “gcPBM binding intensity (ln)” value is 8.23.

Consider “TATTATATTGTTCATTTACACTTTCATTTTAAAAAA [CACACA_negctrl_site260]”, for which the “gcPBM binding intensity (ln)” value stood at 6.62.

“CGCACTAAAAAACACACACACACACCCATATATATA [CACACA_site4152]”: the “gcPBM binding intensity (ln)” value is 7.19.

As for “TGTGTATTATAAACATGTACATAAAAATACGATATT [XGTACX_site3643]”, the “gcPBM binding intensity (ln)” value stood at 6.84.

For “AAAAAAAAATAATATACACACTCCAATATAAAAAAT [CACACA_site3958]”, the “gcPBM binding intensity (ln)” value was 6.8.

As to “ATTTTTTTTTTTTTTTTTTTTTTTTTTTAATCTGGA [CACACA_negctrl_site1347]”, the “gcPBM binding intensity (ln)” value amounted to 5.78.

Turning to “ATATTTAACAGGTTAAAAATATAAACAAATAAATAA [CACACA_negctrl_site907]”, the “gcPBM binding intensity (ln)” value came out at 6.36.

In the case of “GAGAGGATAGTTCACAGTACTCAGTAACTCTACGGA [XGTACX_site4875]”, the “gcPBM binding intensity (ln)” value came out at 6.18.
